Measured values: EPA's CvTdb concentration-time database
This continues a long series; more values of the same kind are listed elsewhere.

Experiments:
Rat [1] = experiment: concentration in plasma after dosing; conditions: 0.75 h; dosed: 2-Methyltetrahydrofuran; 30 mg/kg; oral; Male; F344
Rat [2] = experiment: concentration in brain after dosing; conditions: 10 min; dosed: 2-Methyltetrahydrofuran; 10 mg/kg; iv; Female; F344
Rat [3] = experiment: concentration in brain after dosing; conditions: 1.5 h; dosed: 2-Methyltetrahydrofuran; 30 mg/kg; oral; Male; F344
Rat [4] = experiment: concentration in plasma after dosing; conditions: 0.25 h; dosed: 2-Methyltetrahydrofuran; 30 mg/kg; oral; Female; F344
Rat [5] = experiment: concentration in plasma after dosing; conditions: 5 min; dosed: 2-Methyltetrahydrofuran; 400 mg/kg; oral; Male; F344
Rat [6] = experiment: concentration in brain after dosing; conditions: 6 h; dosed: 2-Methyltetrahydrofuran; 100 mg/kg; oral; Female; Harlan Sprague Dawley
Rat [7] = experiment: concentration in brain after dosing; conditions: 4 h; dosed: 2-Methyltetrahydrofuran; 100 mg/kg; oral; Male; Harlan Sprague Dawley
Rat [8] = experiment: concentration in brain after dosing; conditions: 8 h; dosed: 2-Methyltetrahydrofuran; 100 mg/kg; oral; Male; Harlan Sprague Dawley
Rat [9] = experiment: concentration in brain after dosing; conditions: 20 min; dosed: 2-Methyltetrahydrofuran; 30 mg/kg; oral; Male; F344
Rat [10] = experiment: concentration in plasma after dosing; conditions: 1 h; dosed: 2-Methyltetrahydrofuran; 30 mg/kg; oral; Female; F344
Rat [11] = experiment: concentration in brain after dosing; conditions: 0.75 h; dosed: 2-Methyltetrahydrofuran; 100 mg/kg; oral; Female; Harlan Sprague Dawley
Rat [12] = experiment: concentration in plasma after dosing; conditions: 2 min; dosed: 2-Methyltetrahydrofuran; 10 mg/kg; oral; Male; F344
Rat [13] = experiment: concentration in brain after dosing; conditions: 2 min; dosed: 2-Methyltetrahydrofuran; 30 mg/kg; oral; Male; F344
Rat [14] = experiment: concentration in brain after dosing; conditions: 6 h; dosed: 2-Methyltetrahydrofuran; 100 mg/kg; oral; Female; Harlan Sprague Dawley; remark: listed apart in the source
Rat [15] = experiment: concentration in plasma after dosing; conditions: 1.5 h; dosed: 2-Methyltetrahydrofuran; 10 mg/kg; iv; Female; F344
Rat [16] = experiment: concentration in plasma after dosing; conditions: 8 min; dosed: 2-Methyltetrahydrofuran; 10 mg/kg; oral; Male; F344
Rat [17] = experiment: concentration in plasma after dosing; conditions: 1 h; dosed: 2-Methyltetrahydrofuran; 10 mg/kg; iv; Male; F344
Rat [18] = experiment: concentration in plasma after dosing; conditions: 4 h; dosed: 2-Methyltetrahydrofuran; 100 mg/kg; oral; Female; Harlan Sprague Dawley
Rat [19] = experiment: concentration in plasma after dosing; conditions: dosed: Bromochloroacetic acid, 40 mg/kg, oral, Female, F344
Rat [20] = experiment: concentration in plasma after dosing; conditions: dosed: Bromochloroacetic acid, 100 mg/kg, oral, Female, F344
Rat [21] = experiment: concentration in plasma after dosing; conditions: dosed: Bromochloroacetic acid, 100 mg/kg, oral, Female, F344; remark: listed apart in the source
Rat [22] = experiment: concentration in plasma after dosing; conditions: dosed: Fluorotelomer alcohol 8+2, 80 mg/kg, oral, Female, Harlan Sprague Dawley
Rat [23] = experiment: concentration in plasma after dosing; conditions: 12 h; dosed: Fluorotelomer alcohol 8+2; 24 mg/kg; oral; Male; Harlan Sprague Dawley
Rat [24] = experiment: concentration in plasma after dosing; conditions: 0.75 h; dosed: Fluorotelomer alcohol 8+2; 24 mg/kg; oral; Male; Harlan Sprague Dawley
Rat [25] = experiment: concentration in plasma after dosing; conditions: dosed: Formamide, 600 mg/kg, oral, Male, Harlan Sprague Dawley
Rat [26] = experiment: concentration in plasma after dosing; conditions: 5 h; dosed: Formamide; 30 mg/kg; iv; Female; F344
Rat [27] = experiment: concentration in plasma after dosing; conditions: dosed: Formamide, 600 mg/kg, oral, Female, Harlan Sprague Dawley
Rat [28] = experiment: concentration in plasma after dosing; conditions: dosed: Formamide, 90 mg/kg, iv, Male, Harlan Sprague Dawley
Rat [29] = experiment: concentration in plasma after dosing; conditions: dosed: Formamide, 300 mg/kg, oral, Female, Harlan Sprague Dawley
Rat [30] = experiment: concentration in plasma after dosing; conditions: dosed: Formamide, 300 mg/kg, oral, Female, Harlan Sprague Dawley; remark: listed apart in the source
Rat [31] = experiment: concentration in plasma after dosing; conditions: 0.25 h; dosed: Pyridine; 0.5 mg/kg; iv; Male; F344
Rat [32] = experiment: concentration in plasma after dosing; conditions: dosed: Pyridine, 25 mg/kg, oral, Female, F344
Rat [33] = experiment: concentration in plasma after dosing; conditions: dosed: Pyridine, 25 mg/kg, oral, Female, Harlan Sprague-Dawley
Rat [34] = experiment: concentration in plasma after dosing; conditions: dosed: Pyridine, 5 mg/kg, iv, Female, F344
Rat [35] = experiment: concentration in plasma after dosing; conditions: 2 min; dosed: Pyridine; 10 mg/kg; oral; Male; Harlan Sprague Dawley
Rat [36] = experiment: concentration in plasma after dosing; conditions: dosed: Pyridine, 5 mg/kg, oral, Female, F344
Rat [37] = experiment: concentration in plasma after dosing; conditions: 2 h; dosed: Pyridine; 50 mg/kg; oral; Male; Harlan Sprague Dawley

CC1CCCO1 (stereo not given) [2-Methyltetrahydrofuran]
Conditions	concentration in brain [µg/g]	concentration in plasma [ng/mL]
Rat [1]	–	12800
Rat [2]	6.07	–
Rat [3]	7.32	–
Rat [4]	–	81.4
Rat [5]	–	198000
Rat [6]	1.79	–
Rat [7]	8.89	–
Rat [8]	0.0777	–
Rat [9]	14.4	–
Rat [10]	–	13500
Rat [11]	50.4	–
Rat [12]	–	1250
Rat [13]	2.25	–
Rat [14]	1.02	–
Rat [15]	–	658
Rat [16]	–	3630
Rat [17]	–	1850
Rat [18]	–	13300

O=C(O)C(Cl)Br (stereo not given) [Bromochloroacetic acid]
Conditions	concentration in plasma [ng/mL]
Rat [19], 6 h	660
Rat [19], 20 min	9880
Rat [20], 4.5 h	5290
Rat [20], 10 min	12800
Rat [21], 3 h	6830
Rat [21], 5 min	8600

OCCC(F)(F)C(F)(F)C(F)(F)C(F)(F)C(F)(F)C(F)(F)C(F)(F)C(F)(F)F [Fluorotelomer alcohol 8+2]
Rat [22]
Conditions	concentration in plasma [ng/mL]
5 min	13.6
9 h	820

Conditions	concentration in plasma [ng/mL]
Rat [23]	11.8
Rat [24]	1020

NC=O [Formamide]
Conditions	concentration in plasma [ng/mL]
Rat [25], 1.5 h	727000
Rat [25], 30 h	397000
Rat [27], 0.25 h	514000
Rat [27], 5 h	744000
Rat [28], 10 min	134000
Rat [28], 18 h	33900
Rat [29], 8 h	322000
Rat [29], 12 h	280000
Rat [30], 8 h	387000
Rat [30], 12 h	316000

Conditions	concentration in plasma [ng/mL]
Rat [26]	28800

c1ccncc1 [Pyridine]
Conditions	concentration in plasma [ng/mL]
Rat [31]	302
Rat [35]	5020
Rat [37]	26300

Conditions	concentration in plasma [ng/mL]
Rat [32], 2 h	17300
Rat [32], 14 h	10300
Rat [33], 2 h	19800
Rat [33], 14 h	11700
Rat [34], 0.05 h	3870
Rat [34], 4 h	1650
Rat [36], 4 h	3470
Rat [36], 5 min	1980
